These results are taken from the RNAGym collection of RNA variant scans (doi:10.1101/gad.245936.114).

Sequences and labels used below:
B1: tRNA (parent)
chain: CUCUCGGUAGCCAAGUUGGUUUAAGGCGCAAGACUUUAAUUUAUCACUACGAAAUCUUGAGAUCGGGCGUUCGACUCGCCCCCGGGAGAUUUUUUCCUCGAGCAA

This sample is rich in variants without activity.

The variants in this data set derive from B1. Nature of the data set: nonsense suppression (GFP-seq) (ratio to wild type); higher = more function; SUP4oc tRNA, yeast GFP reporter sort-seq. The method, boiled down: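 Raffinose/galactose medium with 80 mg/L adenine was used to grow yeast carrying genome-integrated tRNA variants (~3% random-mutation library), RFP, and a galactose-driven GFP ochre reporter. Cells went into GFP/RFP bins, which were Illumina-sequenced, and variants with ≥100 reads and ≥30 cells were scored. Nonsense suppression (GFPSEQ) is the per-bin median GFP/RFP weighted by estimated cell share and expressed relative to the unmutated parent tRNA.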
As to G19C C56U, the nonsense suppression was at most 0.026.
The value for A13G G59C was at most 0.026.
Under G10U A23U C83G stands at most 0.026; under A14G A24U G66A G69C G84A, at most 0.026; under C34G U71C, at most 0.026.
The value for U17C U22G C27U was at most 0.026; that for A9G A33U A62G was at most 0.026; that for G61C G65A U71G was at most 0.026.
As for U2A A13C, the nonsense suppression is at most 0.026.
Under U8A A14U A23G A30U stands at most 0.026; under C12G G25C C75A, 0.482; under G18C G78A G88A, at most 0.026.
With C27U G84A, the nonsense suppression is at most 0.026.
Under G26U C27U A62C U70G G86C G88A stands at most 0.026; under A33U G67C, at most 0.026; under A33U C56G G67C, at most 0.026.
The value for G15C A62C was at most 0.026; that for A23C A62G C82A was at most 0.026.
The value for G6C U70C was at most 0.026; that for G10A C72A C80A was at most 0.026; that for C56A A89G was at most 0.026.
For C3A G61C, the nonsense suppression was at most 0.026.
With U8G G32C U57A A62U, the nonsense suppression was at most 0.026.
Turning to U16C A74C C75A, the nonsense suppression is at most 0.026.
The value for G6U G7A A33G A89C was at most 0.026.
The value for A33G G86U was at most 0.026; that for G10C U57C U63C was at most 0.026.
Under A30C U70C G84U stands at most 0.026.
Consider A62C U63A C68A C75A C80U, for which the nonsense suppression was at most 0.026.
For G25C C79U, the nonsense suppression is at most 0.026.
The value for G61U C75G A89C was at most 0.026; that for C3G G6C G10U was at most 0.026.
Regarding C27A G59U, the nonsense suppression was at most 0.026.
Under U20C U70G stands at most 0.026.
Under G10U C11U G32U G61A stands at most 0.026; under A24G C77U, at most 0.026.
For the variant G26U C72U C79G G86A, the nonsense suppression was at most 0.026.
G32U A33U G61A G69A: the nonsense suppression is at most 0.026.
Under U57A A74G stands at most 0.026; under C5A C79G G86U, at most 0.026; under A13G A24C, at most 0.026.
Under C72G G73U C75G stands at most 0.026; under A33U A62G C64U, at most 0.026; under G59U A60U C81A, at most 0.026.
The value for C27A G69A U70G A89U was at most 0.026; that for A30C U57C U71A G78U was at most 0.026.
For the variant G15A A23G C82U, the nonsense suppression was at most 0.026.
Take U20A C56U: the nonsense suppression is at most 0.026.
The value for G61A A89C was 0.0288; that for A31G A60G U76A C80A was at most 0.026.
In the case of A14U G84A, the nonsense suppression is at most 0.026.
U2G A23C C27G A62C C75U: the nonsense suppression was at most 0.026.
Under C5U A54C C64U stands at most 0.026; under G61C U63A G65U, at most 0.026; under G18C C29U G86U, at most 0.026.
Take G19C A54C G65A: the nonsense suppression is at most 0.026.
As for U21G A31C, the nonsense suppression is at most 0.026.
The value for A33G C68G was at most 0.026; that for A54U G65C U76A was at most 0.026.
The value for G18C G61A U63A was at most 0.026.
The value for G67U G73C was at most 0.026.
As for U17C G25U, the nonsense suppression is at most 0.026.
The value for C3A A23C C75G C77A was at most 0.026; that for C5U U20A G65A C72G was at most 0.026.
In the case of A31C U76C, the nonsense suppression was at most 0.026.
The value for A24U G61U G65C G69A U71C G88A was at most 0.026.
Take G61C G73A: the nonsense suppression worked out at 0.213.
Under U57A U76C A89G stands at most 0.026.
The value for U16G G25C U55A was at most 0.026; that for U2A A24G G85C was at most 0.026.
Under U8C C72G stands at most 0.026; under G7U G65C G66A G78A, at most 0.026; under G7U C27U A54U C56A, at most 0.026.
For C11G U20G A33G G61A, the nonsense suppression is at most 0.026.
The value for C27G G28U A33G U57G was at most 0.026; that for C1U G67U U76C was at most 0.026.
The value for A62G G86A was at most 0.026.
The value for U55C C81A was at most 0.026.
As for G10C G32U, the nonsense suppression was at most 0.026.
The value for U16A G61A C64U G78C was at most 0.026.
The value for G18A G26A C29G U57A was at most 0.026; that for C1G C27G U63A A87U was at most 0.026; that for G10U was at most 0.026.
Regarding A33U A74U G84U G85A, the nonsense suppression was at most 0.026.
Under U8A U17C U20G stands at most 0.026; under A9G G84U, 0.0539.
The value for A24G A33C C79G was at most 0.026; that for G61U G67U was at most 0.026; that for G25A A30G U58A was at most 0.026.
On to C3U G15U A31G C75G G86U, for which the nonsense suppression was at most 0.026.
Under C11A C82A stands at most 0.026; under A9U A30G C34A, at most 0.026.
Turning to U63G C64U G85A, the nonsense suppression is at most 0.026.
C1U G69C U76G: the nonsense suppression is at most 0.026.
The value for G7C G73U was at most 0.026.
For G26A G66U, the nonsense suppression is at most 0.026.
In the case of U17A G26A A33C, the nonsense suppression was at most 0.026.
The value for A13U G32C C56G C75U was 0.912.
The value for U35C A60C C72A was at most 0.026; that for C27G U63A C80A was at most 0.026.
Under C5G A14G A60C stands at most 0.026; under C72G A89G, at most 0.026; under A13G C75U, 0.305.
On to U16C C77A, for which the nonsense suppression is at most 0.026.
Under U2C G67A U71A A74C G88C A89G stands at most 0.026.
The value for U2G U70A was at most 0.026.
The value for U21G G69U was at most 0.026.
As for C11A C27A, the nonsense suppression is at most 0.026.
Under U8A G59A U71A stands at most 0.026; under G32A U70A, at most 0.026.
Under C12A G61U stands at most 0.026; under C5U G59A G66C, at most 0.026.
The value for C3A G26A was at most 0.026.
In the case of C1U G61U G78C, the nonsense suppression was at most 0.026.
The value for U70C C79G was at most 0.026; that for G15C C64U G65U was at most 0.026; that for A13U U16G A23U G69U was at most 0.026.
The value for U21C A74C was at most 0.026.
The value for C11U G61C A62U was at most 0.026; that for U76C C81U was 0.0575; that for U16C A31G C34G C79A was at most 0.026.
For the variant U8A C72U U76G, the nonsense suppression was at most 0.026.
Under U4G U17G G69A stands at most 0.026; under G18A U21G G65C, at most 0.026.
Consider A60G G86U, for which the nonsense suppression turned out to be 0.0427.
Under A24U C56G stands at most 0.026; under A33C G67U C80G, at most 0.026; under U20C A87C G88U, at most 0.026.
Under G28C C29A C82A stands at most 0.026; under U22G U71A, at most 0.026; under A13G A87G, 0.14.
Consider U8C C68A, for which the nonsense suppression is at most 0.026.
The value for A54G A62G was at most 0.026.
The value for C5U G6C C29G C77A G88C was at most 0.026.
For the variant C12G A14G U70A, the nonsense suppression was at most 0.026.
Under A13U G28U A89C stands at most 0.026; under G10A U57C U58C G85C, at most 0.026; under G86A G88U, at most 0.026.
The value for G7U U22G A24U C68A was at most 0.026; that for C12A U71A was at most 0.026; that for U2A A24U C27U was at most 0.026.
Under C5G G7A U17G C72U stands at most 0.026; under C29G A33G G88C, at most 0.026; under C1U G15A A24G A87G, at most 0.026.
Regarding C5G A33G C82A, the nonsense suppression was at most 0.026.
For U20A C81A, the nonsense suppression was at most 0.026.
Under C3U C77U stands at most 0.026; under C27G G28C C29A, at most 0.026; under U2G U58G G85A, at most 0.026.
Under A33U C64U C72U C80A stands at most 0.026.
Consider U17G C27G, for which the nonsense suppression is at most 0.026.
Under U8A U17A G61A A74G G85A stands at most 0.026; under U17A C34A C80G, at most 0.026.
Under G7A U63A A89C stands at most 0.026; under A33G C79A C82U, at most 0.026; under G18C A54G U63C C68U, at most 0.026.
The value for G32C C72G was at most 0.026; that for C11A U71A was at most 0.026; that for A31C U70C C80U G86U G88U was at most 0.026.
Consider U8G A31U, for which the nonsense suppression is at most 0.026.
Under G61A C75A stands 0.842; under C34A U57G, at most 0.026; under C5A G18U, at most 0.026.
Regarding U35C C83A A87G, the nonsense suppression is at most 0.026.
Under G25A G32U stands at most 0.026; under U21A C80A, at most 0.026; under U8A U20A A23G, at most 0.026.
